# Measurements reported in the supplement of paper PMC5919970.
# Where a name gives a salt, the structure may show the parent alone. The full ranking holds about 2,000 compounds; the median of “fractional viability relative to vehicle” is about 0.92, and the lowest 2% start at about 0.11. The list shows a part of the results.
# Tested on: TYKNU
# Test: fractional viability relative to vehicle; TYKNU is a high-grade serous ovarian cancer line; higher = less growth inhibition
# Settings: 72 h, genotype: OPA1 knockout (sgOPA1 #2)
# Procedure, shortened: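 Drug treatment lasted 72 h, with cells grown at 37 °C in 5% CO2 in RPMI 1640 supplemented with 10% FBS. Beforehand, TYKNU control cells or their lentiCRISPRv2 knockout derivatives had been seeded at 500 cells per well into drug-stamped 384-well plates carrying a ~2100-compound library at 2 or 10 μM, in duplicate. Viability came from Cell Titer Glo luminescence, with averaged duplicate treatment wells normalised to duplicate control wells in the same plate position.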
Compound,fractional viability (2uM),fractional viability (10uM)
N#C[C@H](O[C@@H]1O[C@H](C(=O)O)[C@@H](O)[C@H](O)[C@H]1O)c1ccccc1 [Laetrile],1.07,0.81
C[C@]12CCC(=O)C(O)=C1CC[C@@H]1[C@@H]2CC[C@]2(C)C(=O)CC[C@@H]12 [Formestane],1.01,0.829
CCOc1ccccc1-n1c(C(C)N2CCN(C(=O)COc3ccc(Cl)cc3)CC2)nc2ccccc2c1=O (stereo unspecified) [Erastin],0.45,0.0976
CN1[C@@H]2CC[C@H]1C[C@@H](OC(=O)C(CO)c1ccccc1)C2 (stereo partly specified) [Atropine sulfate monohydrate],1.12,0.997
CNCC(O)c1ccc(O)cc1 (stereo unspecified) [Synephrine HCl],0.999,0.858
CNCC(O)c1ccc(O)cc1 (stereo unspecified) [Synephrine],1.12,0.926
CCc1c(C(=O)C(N)=O)c2c(OCC(=O)O)cccc2n1Cc1ccccc1,1.1,0.9
Cc1sc2c(c1C)C(c1ccc(Cl)cc1)=N[C@@H](CC(=O)Nc1ccc(O)cc1)c1nnc(C)n1-2,0.634,0.619
COc1ccc(C(CN(C)C)C2(O)CCCCC2)cc1 (stereo unspecified) [Venlafaxine],1.21,1
CN(C)C(=O)Oc1ccc[n+](C)c1 [Pyridostigmine Bromide],1.05,1.07
CN1CCN(c2nc3ccccc3nc2Cl)CC1,1.15,0.988
Cc1cc2c(C(C)C)c(O)c(O)c(C=O)c2c(O)c1-c1c(C)cc2c(C(C)C)c(O)c(O)c(C=O)c2c1O [Gossypol],1.03,0.643
CC(C)NCC(O)c1ccccc1Cl (stereo unspecified) [Clorprenaline HCl],0.911,0.968
C[C@@H]1[C@H](O)[C@@H](C)/C=C/C=C/CC/C=C/C=C/C=C/C=C/[C@H](O[C@H]2O[C@@H](C)[C@H](O)[C@@H](N)[C@H]2O)C[C@@H]2O[C@](O)(C[C@@H](O)[C@H](O)CC[C@@H](O)C[C@@H](O)C[C@@H](O)CC(=O)O[C@H]1C)C[C@H](O)[C@H]2C(=O)O [Nystatin (Fungicidin)],1.17,0.963
O=c1[nH]c2ccc(Cl)cc2c(N[C@@H]2CN3CCC2CC3)c1-c1nc2ccccc2[nH]1,0.352,0.14
CCN(CC)C(=O)c1ccc(C2=CC3(CCNCC3)Oc3cccc(O)c32)cc1,1.15,0.835
Cc1sc2c(c1C)C(c1ccc(Cl)cc1)=N[C@@H](CC(=O)OC(C)(C)C)c1nnc(C)n1-2,0.757,0.641
Cn1c(COP(=O)(NCCBr)NCCBr)cnc1[N+](=O)[O-],1.39,1.12
CCc1cc2c(s1)-n1c(C)nnc1CN=C2c1ccccc1Cl [Etizolam],0.761,0.887
OC(c1ccccc1)(c1ccccc1)C1CCNCC1 [Azacyclonol],1.05,0.983
COc1cc(OC)c(OC)cc1C=O [Asaraldehyde],1.16,1.15
CCC1(C)CC(=O)NC(=O)C1 [Bemegride],1.11,0.966
Cc1ccccc1-n1c(Cn2ncc3c(N)ncnc32)nc2cccc(C)c2c1=O,0.996,0.903

Compound,fractional viability (2uM),fractional viability (10uM)
CCN(Cc1ccc(Cl)nc1)/C(=C/[N+](=O)[O-])NC [Nitenpyram],0.837,0.769
C/C(O)=C(\C#N)C(=O)Nc1cc(Br)ccc1Br,0.71,0.714
C=C1C[C@@H]2[C@H](CC[C@]3(C)C(=O)CC[C@@H]23)[C@@]2(C)C=CC(=O)C=C12 [Exemestane],1.17,1.19
C[C@H]1CNCCc2ccc(Cl)cc21 [Lorcaserin HCl],1.04,1.02
CN1C(=O)CCS(=O)(=O)C1c1ccc(Cl)cc1 (stereo unspecified) [Chlormezanone],1.08,0.891
COc1cc(C)[nH]c(=O)c1CNC(=O)c1c(C)n([C@H](C)C2CCOCC2)c2ccccc12,0.863,0.859
c1ccc2c(c1)sc1ccccc12 [Dibenzothiophene],0.95,0.884
O=P1(N(CCCl)CCCl)NCCCO1 (stereo unspecified) [Cyclophosphamide Monohydrate],1.21,0.837
CCCCCCCCCCCCCCCC[n+]1ccccc1 [Cetylpyridinium Chloride],0.577,0.166
Cc1ccc(-n2nccn2)c(C(=O)N2CCN(c3nc4cc(Cl)ccc4o3)CC[C@H]2C)c1 [Suvorexant (MK-4305)],1.08,0.917
CCCN1CCO[C@@H]2c3cc(O)ccc3OC[C@H]21,0.95,1.01
COc1ccc(CC2NCCc3cc(OC)c(OC)cc32)cc1OC (stereo unspecified) [Tetrahydropapaverine HCl],0.915,0.866
c1ccc([C@@H]2C[C@H]2NC2CCNCC2)cc1,0.959,0.751
C[C@]12CC[C@H](O)CC1=CC[C@@H]1[C@@H]2CC[C@]2(C)C(=O)CC[C@@H]12 [Dehydroepiandrosterone (DHEA)],0.991,0.897
O=[N+]([O-])c1ncc[nH]1 [Azomycin],0.902,0.589
CC(C)OC(=O)[C@H](C)N[P@](=O)(CO[C@H](C)Cn1cnc2c(N)ncnc21)Oc1ccccc1 [Tenofovir Alafenamide (GS-7340)],1.03,0.922
CC[C@H](C)[C@@H]([C@@H](CC(=O)N1CCC[C@H]1[C@H](OC)[C@@H](C)C(=O)N[C@H](C)[C@@H](O)c1ccccc1)OC)N(C)C(=O)[C@@H](NC(=O)[C@@H](NC)C(C)C)C(C)C [Monomethyl auristatin E (MMAE)],0.293,0.226
CCOC(=O)c1cncn1[C@H](C)c1ccccc1 [Etomidate],1.25,0.91
CC(O)(CS(=O)(=O)c1ccc(F)cc1)C(=O)Nc1ccc(C#N)c(C(F)(F)F)c1 (stereo unspecified) [Bicalutamide],1.25,1.18
CCN1CCN(C(=O)Cc2ccc(Nc3ncc(F)c(Nc4ccc(C(=O)Nc5ccccc5Cl)cc4)n3)cc2)CC1 [Aurora A Inhibitor I],1.03,0.0801
O=c1cccc2n1C[C@@H]1CNC[C@H]2C1 [Cytisine],1.09,1.1
Cc1cc(C(C#N)c2ccc(Cl)cc2)c(Cl)cc1NC(=O)c1cc(I)cc(I)c1O (stereo unspecified) [Closantel Sodium],0.919,1.04
Cc1cc(C(C#N)c2ccc(Cl)cc2)c(Cl)cc1NC(=O)c1cc(I)cc(I)c1O (stereo unspecified) [Closantel],0.998,0.919

Compound,fractional viability (2uM),fractional viability (10uM)
O=C(O)c1nn(Cc2ccc(Cl)cc2Cl)c2ccccc12 [Lonidamine],0.911,1.06
CC(C)(C)c1cc(C=C(C#N)C#N)cc(C(C)(C)C)c1O [Tyrphostin 9],0.524,0.396
CC(NC(C)(C)C)C(=O)c1cccc(Cl)c1 (stereo unspecified) [Amfebutamone HCl],0.863,0.854
CC(C)(C)c1cc(C=C(C#N)C#N)cc(Br)c1O,0.899,0.761
CC(C)[C@]12O[C@H]1[C@@H]1O[C@]13[C@]1(O[C@H]1C[C@H]1C4=C(CC[C@@]13C)C(=O)OC4)[C@@H]2O [Triptolide (PG490)],0.572,0.473
O=C1CC[C@@]2(O)[C@H]3Cc4ccc(O)c5c4[C@@]2(CCN3CC2CC2)[C@H]1O5 [Naltrexone HCl],1.07,1.12
Cn1c(CCCC(=O)O)nc2cc(N(CCCl)CCCl)ccc21 [Bendamustine HCl],1.1,1.11
[O-][n+]1ccccc1[S-].[O-][n+]1ccccc1[S-].[Zn+2] [Zinc Pyrithione],0.0671,0.0336
Cc1sc2c(c1C)C(c1ccc(Cl)cc1)=N[C@@H](CC(N)=O)c1nnc(C)n1-2,0.675,0.589
N[C@@H]1C[C@H]1c1ccccc1 [Tranylcypromine (2-PCPA) HCl],0.95,1.01
CN(C)CCc1ccc(O)cc1 [Hordenine],1.08,0.824
C/C(=C\c1csc(C)n1)[C@@H]1C[C@@H]2O[C@@H]2CCC[C@H](C)[C@H](O)[C@@H](C)C(=O)C(C)(C)[C@@H](O)CC(=O)O1 [Epothilone A],0.475,0.629
COC1=C[C@@H]2[C@@H]3Cc4ccc(OC)c(O)c4[C@]2(CCN3C)CC1=O [Sinomenine],0.995,0.891
COc1ccc(N(C(=O)Oc2c(C)cccc2C)c2ccnc(Nc3ccc(N4CCN(C)CC4)cc3)n2)c(OC)c1,0.923,0.895
CN1[C@@H]2C[C@@H](OC(=O)[C@H](CO)c3ccccc3)C[C@H]1[C@@H]1O[C@@H]12 [Scopolamine HBr],1.29,0.892
Cc1cccc(C)c1NC(=O)CN1CCCC1=O [Nefiracetam],0.87,0.978
Cc1cccc(Cc2c[nH]cn2)c1C [Detomidine HCl],0.976,0.944
Cn1cc(C2=C(c3cn(C4CCN(Cc5ccccn5)CC4)c4ccccc34)C(=O)NC2=O)c2ccccc21,1.04,0.99
C[C@@H]1CC[C@@]2(OC1)O[C@H]1C[C@H]3[C@@H]4CC=C5C[C@@H](O[C@@H]6O[C@H](CO)[C@@H](O[C@@H]7O[C@@H](C)[C@H](O)[C@@H](O)[C@H]7O)[C@H](O)[C@H]6O[C@@H]6O[C@@H](C)[C@H](O)[C@@H](O)[C@H]6O)CC[C@]5(C)[C@H]4CC[C@]3(C)[C@H]1[C@@H]2C [Dioscin],0.289,0.0918
C=CCN1CC[C@]23c4c5ccc(O)c4O[C@H]2C(=O)CC[C@@]3(O)[C@H]1C5 [Naloxone HCl],0.816,0.957
O=C(NCC1CCOCC1)c1cnc(Nc2ccc(Cl)cc2Cl)nc1C(F)(F)F,0.956,0.913
CC(=O)O[C@H]1C[C@@H]2CC[C@@H]3[C@H](CC[C@@]4(C)[C@H]3C[C@H]([N+]3(C)CCCCC3)[C@@H]4OC(C)=O)[C@@]2(C)C[C@@H]1[N+]1(C)CCCCC1 [Pancuronium dibromide],1,0.976
